Test results taken from the supplement of paper PMC10681739.
In all, about 2,700 sequences were measured (“arbitrary fluorescence units”: median about 4,100, highest 2% from about 54,000 on). Some of the results follow.

Molecular target: T1, ETS1 (UniProt P14921)
T1 sequence: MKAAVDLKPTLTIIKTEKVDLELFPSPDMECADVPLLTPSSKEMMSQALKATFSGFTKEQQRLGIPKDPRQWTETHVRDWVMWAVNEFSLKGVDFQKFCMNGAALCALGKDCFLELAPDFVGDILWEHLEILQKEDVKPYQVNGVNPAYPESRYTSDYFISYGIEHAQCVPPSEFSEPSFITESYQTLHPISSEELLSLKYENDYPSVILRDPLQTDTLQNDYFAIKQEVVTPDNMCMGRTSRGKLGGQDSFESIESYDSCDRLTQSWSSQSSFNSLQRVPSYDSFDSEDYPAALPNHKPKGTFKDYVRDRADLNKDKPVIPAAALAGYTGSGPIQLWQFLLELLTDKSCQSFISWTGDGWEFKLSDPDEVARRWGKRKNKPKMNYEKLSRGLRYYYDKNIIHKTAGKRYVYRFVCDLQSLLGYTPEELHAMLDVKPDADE
Assay: ETS1 binding intensity (PBM fluorescence) (arbitrary fluorescence units); higher = stronger binding
Conditions: ETS1 concentration 10 nM
Protocol: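 gcPBM on wild-type 36-bp genomic probes with two neighbouring ETS1 sites (4-24 bp apart). Recombinant human ETS1 (10 nM) was detected with anti-ETS1 antibody fluorescence. Values are medians over 3 replicate spots. The probes sit in constant array flanks that are not printed.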

| Sequence | ETS1 binding intensity |
| --- | --- |
| AGTCTAGTTGCCAGGAAACAGGATGTGGGAGGGACA | 3800 |
| GAGGGCAGGAAGCAACCAGCATGGGAGGAAGATGTA | 2590 |
| CAGAGTAGGAAGCAGCTGTTCTAACTTCCGTCTTCG | 1710 |
| CGCTGGGGTATTTCCGCCGGCTTCCGGCGGGGGCCG | 19600 |
| GTTATTACGTCACATCCTGGTTCCGCCTCTGCAAGG | 4960 |
| GAAGACAGGATGTGGTTGCTCATGCCATCCTGGTGG | 10300 |
| TGCCACATCCTGTCTTTTTACCTCCTTTCCTGCTTA | 51200 |
| CTGCCCGGATCAGGAGGTGAGCAGCACTTCCTGCCC | 2100 |
| AAGGTTTAAGGCCGGAAAGGGAAATGAAGGGGCCCG | 1960 |
| TTGGCTCTTGCCGGAAATCGTTCCGCCCGGTGAGGT | 6050 |
| TGGGCTTCCTGGCAGCCATTGTGAAAGGGAAATGTG | 6310 |
| ACGTGGAGGAAGTGAGTGCAGTCACAGGATGTAGTG | 1730 |
| TCCTGAGTTTCCTGTATTTCAGGCAGGATGGCTGAT | 14500 |
| GTCTTGGGAAACGCAACATGTGGGCAGGAAACGCCT | 279 |
| CTTTCTTCCTGCGCAGCCAGGTTTCTAAGGAAATGA | 5250 |
| GGCGGTACCTGCGGAAGACGAGGATGTCCTGGTAGC | 214 |
| GCAGCAAGGCCACTTCCTCTTCCTGTGTAATAATAA | 16800 |
| GGTGGCTGAAATTTCCTTTACTTCCTTGTACAGTTG | 1580 |
| TCTGGCCTTCCGTGCCTGTTACCACTTCCCCTCCAG | 637 |
| TCGCCGGCCTCCTTCCTGTGGGAAGTGCGGCTCCTT | 5360 |
| CCTGCTGGTTTCCGGGGCCGGCCAGGAAGTGGAGGG | 13400 |
| TCGGCCCTGCATCCTGCCTGGGCATCCTGCGCCCGG | 8450 |
| CGACGAGCAACAGGAAATACGGATGCATTTAATCCC | 5480 |
| GCACATTGCAGCGGAAACTACGGAAACATAGGAAAA | 2460 |
| CGCAACCACAGCTTCCGCCACATCCTGCCGGGGTTC | 13200 |

| Sequence | ETS1 binding intensity |
| --- | --- |
| ACGTCGGAAATCTGCTGGGCAGGGAGATTTCCTCAA | 212 |
| CTTAGTTTCCTCTGGCGATGCTAAAGAGGAAGTTAC | 2440 |
| AAGAAGGAAATAATGTCTTTGACTACAGGATATGGG | 289 |
| ACCCGCGCACTTCCGGAGAACGGGAAGGGGGCGTGG | 34800 |
| GGGTGCTTCCGGGGCAGCGCGCGCCACTTCCGACCT | 33500 |
| TTTATTTCCTGTTATTACAAAGGCTTCAGGAAATCT | 32200 |
| CGGCGGAAGGAGCGGGCGGCGTGAGCGCTTCCGCCG | 811 |
| ATAAGAGCAAGACAGGAAGGAAGCCTGCTGTGTCGT | 708 |
| AGATGATTCACATCCTGGGCAGGATGGAGCTGGACA | 5730 |
| ACGCCAGAATCTTCCGGCGTCTTTCCGGTGGTGGTC | 10400 |
| CAGCTGCTCAGCTTCCTCCAAGGAAGTTGCCAATGC | 890 |
| TGGGGAAGCAGGATGAGCTCATTTCCTTTGTACCAA | 3180 |
| GAAACATTATTTCCTGTGATGTTTCCTGTGTGGGCC | 30900 |
| CCCCTGCAGCCACTTCCTCAGGAAGTGAGCTCACCT | 5320 |
| GGTCCGGAAACGGGACAGAAGGCCCACCTTCCTCCC | 8480 |
| TTAAGCAGGATGACAGCTCCAGTAACTTCCTCTTCC | 626 |
| TGCTGCAGCCAGGAAAATACATTTCCGTGTGTTTTA | 514 |
| TAGCTTGACTTCCTGTCTTTTATCATCCGCAATCTA | 49100 |
| CTCATCGTCATTTCCTGAGCCCTTCCTGGGTGAGAA | 8880 |
| AGATCGGGCAGGAAATGGGCACGGAAGCCCTGCAGT | 11100 |
| GCGCCGCCCTTCCGCGTCTGCCCTTCCTGCCCTCTC | 1370 |
| TCAGGGTTTCCTGTGCAGAGAAGTCCTTCCTGTAAC | 21500 |
| GCCCTAAACTCGCTTCCGGTTTCCTCTTCCCCAATG | 45300 |
| TCGTTTTTTTCCGCCAGTCTTGGCGGAAGCCTGAGA | 424 |
| GAGGCCCGGAAGGGGCCAGGCGCGCTTCCGTCTCCG | 2810 |

| Sequence | ETS1 binding intensity |
| --- | --- |
| AGAGCAAAACAGGATGCATTCAGGATGAACGTCTTT | 2240 |
| CAAGACGCAGGAAAACCGCCCCCTTCCTGCGCTCCT | 354 |
| GGATCAGGAAGTCACGACATGGCGACCATCCTGGCT | 1720 |
| AGTTGAGGAAATGAGGGAATTCTGACTTCCTCAGCC | 1430 |
| GCTCAAAGGATGTGTACTGAAGAACATCCTGTACTG | 3000 |
| ACGCTTTTCCGTTTTGCGTGCCTTTGTTTCCGCTCC | 5260 |
| GTTTTAAGCAGGAAACGGCGCAGGAAAGGAGGTGTC | 2650 |
| GGCGCGGATACCGAGGCCTGCGGGGGACATCCGCCG | 230 |
| GCGCCGCCTCAGTTCCGCGGCTTCCGGCCACAGAGT | 8030 |
| TGAAGGCTTCCGCCAAGGTGAGGGGCTTCCTCTGGG | 9460 |
| TGAGTCACACAGGATGTAAACATCCTACTTTGGCCT | 5490 |
| TGGTAACAGGCATTTCCGGTTTCCGGCCGGCTCCCT | 61800 |
| ATGGTTCCAGCCGGAAAAAGAGGAAGTTGGCGCATG | 923 |
| CCTGCCCGGAAAAGAAGGAGTTCTGGGAAATGTAGT | 484 |
| CCCCAACATATTCCGGCCTTCTGGGAAATGTAGTTC | 755 |
| AGGCCGAGGTAGGATGTTTACATCCTGTGTGACTCA | 6360 |
| AGGGAGGCTTCCTGTGAGGCCCACTTCCTGTGAAGC | 17000 |
| TTCTGTTGGCTTCCTCCAATGCAGGATGTTAGCTTC | 1100 |
| AGACTTCCTCTGCCTCCCGGGGGTTGGTTTCCTCAT | 21700 |
| TTCAGACCTCGGCTTCCTACTTCCGCCGCTCTCGCG | 6920 |
| CGTGGTTTCCCGGGTGATGGCCACGCGGAAGAGGTG | 607 |
| ACCCCCGGAAGCCCCAGCAATCCTCAGGGAAGTGGG | 3870 |
| GAAGGGGCCGGATGCAGACGAACGTTCCGGCGGCTC | 3900 |
| ACAGAGAAGAAGGAAACTCACTTCCTGTCGTCGCAG | 15400 |
| AGAAGGCTCCAGGAAGCCAGCTTCCTCCCTCCGCCC | 1300 |

| Sequence | ETS1 binding intensity |
| --- | --- |
| TGAAAGGGGACTTCCTGACCCAGGATGTGGCATGGT | 6130 |
| AGCACATGTTCAGGATGAGTCATCCATTTCCTGCCA | 1260 |
| CGCTGCTTCCGGGTCTCGGCAAGCACTTCCGGGGTG | 30400 |
| ACTTGCCGCGGATACCCAGCCAGCGGAAGTGCGGTT | 1280 |
| CACCCCGCCTTCCTCCCCAGGTGTTTCCGGAGCTCG | 1820 |
| AGTTCATCCTGGGAGCTGCTGCGGGTTCTTCCGGGA | 1010 |
| CGCACGCCGCCACTTCCGCTTCCGTCCGTGCTGCGG | 27600 |
| GAGAGCGGAAGCGGGCGAAAACGAGACTTCCGGTGC | 27700 |
| ACAAAGTCCCACATCCTGACAGGAAACAGCCTCCAT | 9170 |
| CACCCCGGAAGCGCTCGCCGCCGACCAGGAAGAAGA | 8970 |
| AGCTGCGGCTTCCTGCCTCAGGCAGGATGTACCAAA | 18200 |
| GCTGAGTCATTTCCCATGCCACTTCCGGTGCCATGG | 39000 |
| AGAGTGTTCCGGGCCGGGCTGGGGTCCGGAACGAGT | 975 |
| CACTAGCATCCTGCTGCAGCTGACCAGGATGTACTC | 8280 |
| TAAAGGTGAGAGAGGAAGCAGGAAGTGGCATGATCC | 2630 |
| CTGGAGACTTCCTCCCACAGCCCCCTTCCTGCATGC | 5820 |
| CCAAGCAGATTCCGGTGCCATGTTTCCTGTATAGCC | 7160 |
| GTAGCTCACAGGATAACCTTGTTTCCTGTGATTTTG | 1790 |
| CCCGGGCCTCTTCCGCCTCCGTTTCCTCAGCTGCCG | 7960 |
| TGAAAGTCCTTTTCCTGGCACATCCTGGCTCAAAAA | 3000 |
| GACGGTAGAAGCGGAAAAGTTTCCGAAAGGCGTCCT | 328 |
| TTGATGGCATCCACTTCCTTCCTGCCCCTCCAGGAG | 5750 |
| TCCGGGCGGAAGTGAGGCGCCCAGCGGAACGGCCTC | 10300 |
| GGTTTGACTTCCGGACTAGGTGGCTTCCTCCCTTCA | 41500 |
| CACCCGGAGCGCCGGAAAAAGGAAACCGGCTCGGCG | 751 |

| Sequence | ETS1 binding intensity |
| --- | --- |
| CATGTATCAGGAAAATGACTTGTTTCCTTTTCACAT | 216 |
| CAGAAGAAAAGGAAATTATCATTTCCCTGCTTGTCT | 682 |
| GGCGCTGGCAAATCCGGCCCAGGATGTAGAGCTGGC | 1900 |
| TTTCCCTGGTGTTTCCTCTCAGGAAGGGCCGTGTGA | 1180 |
| CTGGCCCAGGAGGAAGTGAGAGGAAGCAAAGTGAGA | 784 |
| AGAGGCTGCAGGAAGCTGGTGACTTCCCTGAAAATT | 1570 |
| TGACAAGAGCCGGAACCGTCACTTCCGGCGGCGCGG | 24700 |
| TCTCCGTGGCAACGGAAACTTCCCGCGCTACGGCGG | 348 |
| GGCCATCCTGCCATACCCCGCCATGCTCGGATGCCC | 4700 |
| CCAGAATAGCTTCCGAGTCAGCCGGAAGTGACCCTC | 7950 |
| AGTGGGGACTCAGGATGCACGGAAAAGATAACGTCG | 204 |
| GACAGGAAGGGCCTAATACTGCAAGCCAGGAAGTTT | 1650 |
| AAGCTGCTGGGTATCCGCGCCGGAACCGCGAGGGGG | 240 |
| TAAAAAGGAACATCCTCTCCCATCCTGGGCGTGCTG | 4260 |
| CCCTGGGGCCCGGAAACCGTTTTCCGGTCTTTCGCT | 10200 |
| CTCGAGTTTCCTGGGCTTTGATCACCGGAAGTACAT | 8990 |
| TTCCTGAGCAGGAAGATGAAACAGGAAATGCAACAA | 3980 |
| CCGCAGTTTCCGCCGCGATAGGGGCTTCCCGTGCGT | 13200 |
| TCTGACTTCCTCTGGGGAGCCAGATGGGGAAGTGTG | 13300 |
| ACATAGTTCCGGCTCGCTGAGCTCGGCGGAAGGAGA | 6970 |
| CTCCAGAGCACTTCCTGGCCCAGGAAAGCAGCAAGC | 12500 |
| GCCTCTCGGAAGCAATCTTTCGGGACGGAAGTTAAG | 523 |
| AGAAATCAGGAAATAGCTGATGAAGGAAGTGGTTTT | 2120 |
| TCCGGCGCACTTCCGTACCCCTCTTCCGGCGCACTC | 16800 |
| GGAGAAGAGGAAGCTCCGCCTCGCTTCCCGGTATTG | 699 |
